Consider 90 compounds from article PMC4336329 (PLoS ONE, 2015).

Hit rate of the full screen: of about 310,000 compounds, about 14,000 (4.5%) showed an effect of 50% or more. The effect is printed as a negative number. Some of the results follow.
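Further: peak tail current of the secondary pulse compared with the same well before compound.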

The target of this test is human ether-à-go-go-related gene (hERG) potassium channel (human, UniProt Q12809). The test can be described thus: primary screen, population patch clamp on CHO cells stably expressing hERG.
Sequence of human ether-à-go-go-related gene (hERG) potassium channel (Q12809 whole entry, looked up): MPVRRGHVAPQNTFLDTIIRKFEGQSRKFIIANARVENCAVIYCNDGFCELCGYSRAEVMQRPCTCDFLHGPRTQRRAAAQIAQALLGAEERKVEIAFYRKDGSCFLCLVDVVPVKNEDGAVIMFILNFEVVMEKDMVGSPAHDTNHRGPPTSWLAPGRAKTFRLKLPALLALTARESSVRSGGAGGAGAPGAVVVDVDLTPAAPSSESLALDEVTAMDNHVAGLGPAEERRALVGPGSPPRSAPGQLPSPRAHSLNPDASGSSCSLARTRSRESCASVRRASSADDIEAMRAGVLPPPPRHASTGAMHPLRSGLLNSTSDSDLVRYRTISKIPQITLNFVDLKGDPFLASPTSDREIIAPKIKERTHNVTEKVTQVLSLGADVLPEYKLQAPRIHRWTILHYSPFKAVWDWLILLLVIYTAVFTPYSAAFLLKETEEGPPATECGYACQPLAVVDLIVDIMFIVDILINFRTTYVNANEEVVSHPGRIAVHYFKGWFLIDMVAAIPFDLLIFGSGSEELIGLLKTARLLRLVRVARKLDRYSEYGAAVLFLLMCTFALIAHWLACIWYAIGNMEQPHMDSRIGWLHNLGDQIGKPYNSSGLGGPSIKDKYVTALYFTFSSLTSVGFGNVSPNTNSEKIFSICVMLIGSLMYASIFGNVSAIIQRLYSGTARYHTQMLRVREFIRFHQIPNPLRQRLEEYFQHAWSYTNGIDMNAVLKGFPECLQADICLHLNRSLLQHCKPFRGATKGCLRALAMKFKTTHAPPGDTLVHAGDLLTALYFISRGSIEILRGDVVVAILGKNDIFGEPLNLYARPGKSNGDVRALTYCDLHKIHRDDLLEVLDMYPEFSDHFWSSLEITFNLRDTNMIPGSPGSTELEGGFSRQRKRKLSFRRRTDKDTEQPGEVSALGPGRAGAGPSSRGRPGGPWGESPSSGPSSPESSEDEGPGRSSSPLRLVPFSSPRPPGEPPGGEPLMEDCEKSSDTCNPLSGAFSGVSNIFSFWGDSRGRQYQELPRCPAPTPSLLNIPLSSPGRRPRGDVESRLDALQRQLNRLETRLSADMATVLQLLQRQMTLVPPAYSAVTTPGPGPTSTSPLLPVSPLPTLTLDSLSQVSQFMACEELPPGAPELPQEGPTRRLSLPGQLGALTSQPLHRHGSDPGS
On to `COc1ccc(CN2CCN(Cc3ccccc3F)CC2)cc1.O=C(O)C(=O)O`, for which the “hERG current change (%, negative = inhibition) at 10uM” value is -43.2%. Turning to `Cn1nnnc1SCc1nc2ccccc2[nH]1`, the “hERG current change (%, negative = inhibition) at 10uM” value stood at 0.0269%. The result for `CC(=O)c1cccc(NC(=O)c2nccnc2C(=O)O)c1` reads 5.71%; that for `COc1ccc(C(=O)OCC(=O)NCCCc2ccccc2)c(OC)c1`, 4.47%. Turning to `COc1ccc(Nc2cc(C)c3ccc(O)cc3n2)cc1`, the “hERG current change (%, negative = inhibition) at 10uM” value is -58.4%. The result for `O=c1[nH]c(CO)nc2c1oc1ccccc12` reads 14.2%; that for `O=C(NC1CCCCC1)NC12CC3CC(CC(C3)C1)C2`, 19.8%; that for `COc1cc(NC(=S)NC2CC(C)(C)NC(C)(C)C2)cc(OC)c1`, 2.03%. Then `CCOC(=O)Cc1c(C)[nH]c(=S)[nH]c1=O`, with 24.8%; and `CC(C)CCOc1ccc(C(=O)NN2C(=O)NC3(CCCCC3)C2=O)cc1`, with 4.04%; and `CN(C)C(=O)NC(Nc1ccc(Cl)cc1Cl)C(Cl)(Cl)Cl` (stereo not drawn), with -18.9%. On to `CCOC(=O)N1CCN(C(=O)C(NC(=O)c2ccc(CC)cc2)C(C)C)CC1` (stereo not drawn), for which the “hERG current change (%, negative = inhibition) at 10uM” value was -19.5%. For the compound `COc1ccccc1CCC(=O)OCC(=O)Nc1c(Br)cc(C)cc1Br`, the “hERG current change (%, negative = inhibition) at 10uM” value worked out at 8.68%. As for `CC(C)(C)OC(=O)N1CCC(C(=O)O)CC1`, the “hERG current change (%, negative = inhibition) at 10uM” value amounted to 0.816%.

On to `CCOC(=O)CC(NC(=O)c1ccco1)c1ccc(OC)cc1` (stereo not drawn), for which the “hERG current change (%, negative = inhibition) at 10uM” value turned out to be 7.84%. For `Clc1ccccc1CONc1ncnc2nonc12`, the “hERG current change (%, negative = inhibition) at 10uM” value is 2.54%.

On to `COc1ccc(C2C3=C(Nc4ncnn42)c2ccccc2CCC3)cc1` (stereo not drawn), for which the “hERG current change (%, negative = inhibition) at 10uM” value was -7.09%.

In the case of `CCCc1nc(SCC(=O)Nc2ccccc2)c2c(=O)n(C)c(=O)n(C)c2n1`, the “hERG current change (%, negative = inhibition) at 10uM” value was found to be 5.44%. Then `CCOC(=O)c1c(-c2ccccc2)csc1NC(=O)CSc1nnnn1C`, with -22.7%; and `O=C(Nc1ccccc1C(=O)NCc1cccnc1)c1ccccc1Cl`, with -8.28%; and `O=C(Nc1ccccc1)Nc1cc(S(=O)(=O)N2CCOCC2)ccc1N1CCCC1`, with -71%. Then `COC(=O)c1cccc(NC(=O)C(C)(C)C)c1`, with 24.2%. The result for `CC(=O)NCCOc1cccc(OCCNC(C)=O)c1` reads -8.16%; that for `Cn1c(/C(C#N)=C/c2ccncc2)nc2ccccc21`, -19.2%. In the case of `O=C(OC1CCN(c2ncc(C(F)(F)F)cc2Cl)CC1)c1ccc(Cl)cc1`, the “hERG current change (%, negative = inhibition) at 10uM” value is 8.55%.

As to `COC(=O)[C@H](CC(C)C)NC(=O)N1CCN(c2cccc(C(F)(F)F)c2)CC1`, the “hERG current change (%, negative = inhibition) at 10uM” value is reported as 2.74%. Then `OC(CN1CCN(c2ccccn2)CC1)Cn1c2ccc(Cl)cc2c2cc(Cl)ccc21` (stereo not drawn), with 0.599%; and `CC1(C)Cc2ccccc2-c2n[nH]c(=S)n21`, with 0.26%. `O=C(Nc1ccc(Br)cn1)c1cccc2ccccc12`: the “hERG current change (%, negative = inhibition) at 10uM” value was 12.2%.

Take `Br.N=C1c2ccccc2CN1NC(=O)COc1ccc(Cl)cc1`: the “hERG current change (%, negative = inhibition) at 10uM” value is given as -50.4%. Take `COC(=O)c1cc(OC)c(OC)cc1NC(=O)CCc1ccc(C)o1`: the “hERG current change (%, negative = inhibition) at 10uM” value is 2.64%. The result for `COC(=O)c1cc(S(=O)(=O)NCC2CCN(Cc3cc(C)ccc3C)CC2)cn1C` reads -27.5%. As to `CC(=O)N1CCN(c2ccc(Nc3nc(C)nc4c3oc3ccccc34)cc2)CC1.Cl`, the “hERG current change (%, negative = inhibition) at 10uM” value is reported as -51.3%. Then `COc1ccc(S(=O)(=O)N2CCSC2c2ccc(OC)c(OC)c2)cc1` (stereo not drawn), with -6.55%; and `CCSc1nnc(NC(=O)c2ccccn2)s1`, with -0.0332%; and `COc1cc(C(=O)NC(CCSC)C(=O)OCC(=O)C(C)(C)C)cc(OC)c1OC` (stereo not drawn), with 7.51%. The result for `Cc1ccc(-n2[nH]c(C)c(C=NC34CN5CN(CN(C5)C3)C4)c2=O)cc1C` reads 4.05%; that for `COc1nccc(C(F)(F)F)c1C(=O)NC(=O)Nc1ccccc1`, -8.51%. The result for `CCCn1c2ccccc2c2cnn(CC(=O)N3CCOCC3)c(=O)c21` reads -13.7%; that for `O=C(Nc1ccc2c(c1)S(=O)(=O)N=C1CCCCCN12)c1ccccc1Cl`, 3.13%. As to `O=c1c(F)cn(C2CCCO2)c(=O)n1Cc1ccccc1Cl` (stereo not drawn), the “hERG current change (%, negative = inhibition) at 10uM” value is 9.38%. In the case of `CC1CCc2c(sc3nc(CN4CCOCC4)nc(Sc4ccccc4)c23)C1` (stereo not drawn), the “hERG current change (%, negative = inhibition) at 10uM” value is reported as 15.5%. The result for `O=C(CS(=O)(=O)c1c[nH]c2ccccc12)N1CCc2ccccc21` reads -20.3%.

For `CC(C)(C)n1cnc(C(N)=O)c1N`, the “hERG current change (%, negative = inhibition) at 10uM” value came to 19%. The result for `CCOC(=O)Cn1nc(C)n(-c2ccc(C)cc2)c1=O` reads 5.9%. On to `COc1ccc(CCN2C(=O)C(Oc3ccccc3)C2c2ccc3c(c2)OCO3)cc1` (stereo not drawn), for which the “hERG current change (%, negative = inhibition) at 10uM” value is given as -1.84%. The result for `O=C(CN1C(=O)CSc2ccccc21)NC1CCCC1` reads 0.766%. The result for `O=C(Nc1cc(Cl)ccc1-n1cncn1)c1ccc([N+](=O)[O-])s1` reads -27.9%; that for `Cc1cc(N/N=C/c2ccncc2)c([N+](=O)[O-])cc1[N+](=O)[O-]`, 7.99%. The result for `COc1ccc(C(=O)CC(=O)C(=O)Nc2ccccc2)cc1` reads 12.1%; that for `Cc1cc(SCCC(=O)O)nc2c(C)cccc12`, 9.51%; that for `CCC(CC)C(=O)Nc1cccc(C(=O)Nc2ccc(S(N)(=O)=O)cc2)c1`, 10.8%.

With `O=c1c2ccccc2ccc2ccc(P(=O)(O)O)cc12`, the “hERG current change (%, negative = inhibition) at 10uM” value is reported as -47.2%. Then `COc1cc(C(=O)Oc2cccc(Nc3ncnc4ccccc34)c2)cc(OC)c1OC`, with 9.05%. Take `C/C(=N/NC(=O)c1ccco1)c1ccc(NC(=O)c2ccc(F)cc2)cc1`: the “hERG current change (%, negative = inhibition) at 10uM” value was 14.5%. Then `Cc1cc(S(=O)(=O)NCc2ccccc2)ccc1OCC(=O)NCc1cccnc1`, with -23.4%; and `CCOc1cc(/C=C2\NC(=O)NC2=O)ccc1OC(C)C(=O)O` (stereo not drawn), with 18.4%; and `CC(=O)Oc1c2occc2cc2ccc(=O)oc12`, with 4.96%. The result for `O=c1[nH]cc(S(=O)(=O)N2CCOCC2)c(=O)[nH]1` reads -7.17%; that for `Cc1ccc(CNC(=O)CCS(=O)(=O)c2ccc(Br)s2)cc1`, 11.6%. Regarding `CC1(c2ccc3noc(-c4ccc(Cl)cc4)c3c2)OCCO1`, the “hERG current change (%, negative = inhibition) at 10uM” value is reported as 6.61%. The result for `O=C(COC(=O)C1CC(=O)N(c2ccccc2)C1)c1ccccc1` (stereo not drawn) reads -3.5%; that for `Clc1ccc(C2=NCCn3nc4ccccc4c32)cc1`, -7.91%.

For `COc1cc(CNCc2ccccc2)cc(Cl)c1OC.Cl`, the “hERG current change (%, negative = inhibition) at 10uM” value is listed as -4.32%. The result for `CCCNC(=O)NS(=O)(=O)c1cnccc1Sc1ccc(Cl)c(Cl)c1` reads 0.164%. The result for `CCOC(=O)N1C(=O)[C@@](c2ccc(Cl)cc2)(C(C)C)N1C(=O)OCC` reads 18.8%; that for `CCOCCSc1nnc2nc(C)cc(C)n12`, 3.34%. Then `Cc1ccc(C2C(=O)NC(=O)NC2=O)cc1`, with 23.5%. For `NS(=O)(=O)c1cccc(NS(=O)(=O)c2ccc(/C=C/C(=O)OCC(=O)c3ccccc3)cc2)c1`, the “hERG current change (%, negative = inhibition) at 10uM” value is recorded as 38.2%. The result for `Cc1cc(C)nc(Nc2nc3ccccc3s2)n1` reads 15.2%. Then `CCN(CC)S(=O)(=O)c1ccc2c(c1)N(CC(=O)NCc1ccco1)C(=O)CO2`, with 7.23%. Then `COc1cc2c(cc1OC)C(SC)=NC1(CCCC1)C2`, with -0.0979%.

In the case of `COc1cccc(O)c1CN1CCC(C(=O)Nc2ccc(-c3cccc(C)c3)cc2)CC1`, the “hERG current change (%, negative = inhibition) at 10uM” value is listed as -11.2%. Then `CCOC(=O)C1=C(C(F)(F)F)Nc2ncnn2C1c1ccc(OC)cc1OC` (stereo not drawn), with 31.6%. Then `O=C(Cn1c(=O)cnc2ccccc21)NNC(=O)c1ccc(Cl)cc1`, with 13.4%; and `COc1cccc(NC(=O)NCc2ccccc2Cl)c1`, with 13%. The result for `CC(C)CCNC(=O)C(=O)Nc1cc2c3c(c1)CCC(=O)N3CCC2` reads -6%. As for `O=C(COC(=O)/C=C/c1ccccc1)Nc1ccc2c(c1)OCCO2`, the “hERG current change (%, negative = inhibition) at 10uM” value is reported as -3.37%. Then `COC(=O)CN1C(=O)C(O)(CC(=O)c2ccc(Cl)cc2)c2ccccc21` (stereo not drawn), with -4.34%; and `O=c1c2nncn2c2cc(C(F)(F)F)ccc2n1CCNc1ncc(C(F)(F)F)cc1Cl`, with 9.55%; and `O=C(Nc1ccc(Br)cn1)c1ccc(COc2c(F)c(F)cc(F)c2F)o1`, with 7.5%.

Turning to `C[C@]12C=CC(=O)C=C1CC[C@@H]1C2C(O)C[C@@]2(C)C1CC[C@]2(O)C(=O)COC(=O)CCC(=O)NC(CC(=O)O)C(=O)O` (stereo partly drawn), the “hERG current change (%, negative = inhibition) at 10uM” value turned out to be 11.4%.

Turning to `CN1CCN(S(=O)(=O)c2cccc(C(=O)N(Cc3nnc(-c4ccccc4Cl)o3)C3CC3)c2)CC1`, the “hERG current change (%, negative = inhibition) at 10uM” value is reported as -4.44%.

For the compound `O=C(c1ccc2c(c1)CCN2S(=O)(=O)c1ccccc1)N1CCN(c2ccccc2)CC1`, the “hERG current change (%, negative = inhibition) at 10uM” value is given as 3.01%. Then `C(#CCN1CCCCC1)COCc1ccccc1.Cl`, with -9.87%; and `CN(Cc1ccccc1)C(=O)c1cc(=O)[nH]c2ccccc12`, with 8.3%.

Regarding `CCCCSCCCNC(=O)CCCN1C(=O)c2ccccc2Sc2ncccc21`, the “hERG current change (%, negative = inhibition) at 10uM” value is listed as -27.6%. The result for `CC(C)(C)NC(=O)c1cccc(NC(=O)c2ccc3c(c2)C(=O)N(C(C)(C)C)C3=O)c1` reads 2.05%. Then `COCCNc1oc(/C=C/c2ccccc2OC)nc1S(=O)(=O)c1ccccc1`, with 4.27%; and `COc1cc(CNc2nc3ccccc3s2)cc(OC)c1OC`, with 3.33%.
